6 sequences from the supplement of paper PMC11316812 can be followed below.

± gives the standard deviation of the averaged measurements.

In one data set the test system is MCF7. The data set is described as follows: percentage of EdU-negative (G0-arrested) nuclei per well, 72 h; reference: sequence is the full UniProt precursor, the tested protein was the secreted form or ectodomain; higher = more G0 arrest.
The next data set concerns hTERT-HMEC. Description: percentage of EdU-negative (G0-arrested) nuclei per well, 72 h; higher = more G0 arrest. To be noted: reference: sequence is the full UniProt precursor, the tested protein was the secreted form or ectodomain.
Where [1] appears, read: protein concentration 0.0102875 µM.
The mark [2] stands for this setting: protein concentration 0.102875 µM.
Setting [3] is: protein concentration 0.0156325 µM.
Where [4] appears, read: protein concentration 0.156325 µM.
[5] abbreviates: protein concentration 0.0190475 µM.
Setting [6] is: protein concentration 0.190475 µM.
The mark [7] stands for this setting: protein concentration 0.0293625 µM.
Setting [8] is: protein concentration 0.293625 µM.
The mark [9] stands for this setting: protein concentration 0.0225 µM.
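Further: secreted proteins added to cultured cells, EdU pulse at the end, nuclei found by Hoechst imaging, EdU status from nuclear versus surrounding ring intensity ratio, PBS as neutral control.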

As to “MDSLASLVLCGVSLLLSGTVEGAMDLILINSLPLVSDAETSLTCIASGWRPHEPITIGRDFEALMNQHQDPLEVTQDVTREWAKKVVWKREKASKINGAYFCEGRVRGEAIRIRTMKMRQQASFLPATLTMTVDKGDNVNISFKKVLIKEEDAVIYKNGSFIHSVPRHEVPDILEVHLPHAQPQDAGVYSARYIGGNLFTSAFTRLIVRRCEAQKWGPECNHLCTACMNNGVCHEDTGECICPPGFMGRTCEKACELHTFGRTCKERCSGQEGCKSYVFCLPDPYGCSCATGWKGLQCNEACHPGFYGPDCKLRCSCNNGEMCDRFQGCLCSPGWQGLQCEREGIQRMTPKIVDLPDHIEVNSGKFNPICKASGWPLPTNEEMTLVKPDGTVLHPKDFNHTDHFSVAIFTIHRILPPDSGVWVCSVNTVAGMVEKPFNISVKVLPKPLNAPNVIDTGHNFAVINISSEPYFGDGPIKSKKLLYKPVNHYEAWQHIQVTNEIVTLNYLEPRTEYELCVQLVRRGEGGEGHPGPVRRFTTASIGLPPPRGLNLLPKSQTTLNLTWQPIFPSSEDDFYVEVERRSVQKSDQQNIKVPGNLTSVLLNNLHPREQYVVRARVNTKAQGEWSEDLTAWTLSDILPPQPENIKISNITHSSAVISWTILDGYSISSITIRYKVQGKNEDQHVDVKIKNATITQYQLKGLEPETAYQVDIFAENNIGSSNPAFSHELVTLPESQAPADLGGGKMLLIAILGSAGMTCLTVLLAFLIILQLKRANVQRRMAQAFQNVREEPAVQFNSGTLALNRKVKNNPDPTIYPVLDWNDIKFQDVIGEGNFGQVLKARIKKDGLRMDAAIKRMKEYASKDDHRDFAGELEVLCKLGHHPNIINLLGACEHRGYLYLAIEYAPHGNLLDFLRKSRVLETDPAFAIANSTASTLSSQQLLHFAADVARGMDYLSQKQFIHRDLAARNILVGENYVAKIADFGLSRGQEVYVKKTMGRLPVRWMAIESLNYSVYTTNSDVWSYGVLLWEIVSLGGTPYCGMTCAELYEKLPQGYRLEKPLNCDDEVYDLMRQCWREKPYERPSFAQILVSLNRMLEERKTYVNTTLYEKFTYAGIDCSAEEAA”, the “percentage of EdU-negative” value with MCF7 (protein concentration 0.028 µM) amounted to 25.5 ± 2.3%; in the data set with MCF7 (protein concentration 0.28 µM), 31.6 ± 1.1%; in the data set on hTERT-HMEC (protein concentration 0.028 µM), 4.38 ± 0.76%; in the data set with hTERT-HMEC (protein concentration 0.28 µM), 12.4 ± 1.5%.

Take “MGSNLSPQLCLMPFILGLLSGGVTTTPWSLARPQGSCSLEGVEIKGGSFRLLQEGQALEYVCPSGFYPYPVQTRTCRSTGSWSTLKTQDQKTVRKAECRAIHCPRPHDFENGEYWPRSPYYNVSDEISFHCYDGYTLRGSANRTCQVNGRWSGQTAICDNGAGYCSNPGIPIGTRKVGSQYRLEDSVTYHCSRGLTLRGSQRRTCQEGGSWSGTEPSCQDSFMYDTPQEVAEAFLSSLTETIEGVDAEDGHGPGEQQKRKIVLDPSGSMNIYLVLDGSDSIGASNFTGAKKCLVNLIEKVASYGVKPRYGLVTYATYPKIWVKVSEADSSNADWVTKQLNEINYEDHKLKSGTNTKKALQAVYSMMSWPDDVPPEGWNRTRHVIILMTDGLHNMGGDPITVIDEIRDLLYIGKDRKNPREDYLDVYVFGVGPLVNQVNINALASKKDNEQHVFKVKDMENLEDVFYQMIDESQSLSLCGMVWEHRKGTDYHKQPWQAKISVIRPSKGHESCMGAVVSEYFVLTAAHCFTVDDKEHSIKVSVGGEKRDLEIEVVLFHPNYNINGKKEAGIPEFYDYDVALIKLKNKLKYGQTIRPICLPCTEGTTRALRLPPTTTCQQQKEELLPAQDIKALFVSEEEKKLTRKEVYIKNGDKKGSCERDAQYAPGYDKVKDISEVVTPRFLCTGGVSPYADPNTCRGDSGGPLIVHKRSRFIQVGVISWGVVDVCKNQKRQKQVPAHARDFHINLFQVLPWLKEKLQDEDLGFL”: the “percentage of EdU-negative” value is 24.23 ± 0.21% with MCF7 (setting [1]), 25.3 ± 1.3% in the data set with MCF7 (setting [2]), 5 ± 0.34% in the data set on hTERT-HMEC (setting [1]) and 5.82 ± 0.94% with hTERT-HMEC (setting [2]).

Regarding “MGTSHPAFLVLGCLLTGLSLILCQLSLPSILPNENEKVVQLNSSFSLRCFGESEVSWQYPMSEEESSDVEIRNEENNSGLFVTVLEVSSASAAHTGLYTCYYNHTQTEENELEGRHIYIYVPDPDVAFVPLGMTDYLVIVEDDDSAIIPCRTTDPETPVTLHNSEGVVPASYDSRQGFNGTFTVGPYICEATVKGKKFQTIPFNVYALKATSELDLEMEALKTVYKSGETIVVTCAVFNNEVVDLQWTYPGEVKGKGITMLEEIKVPSIKLVYTLTVPEATVKDSGDYECAARQATREVKEMKKVTISVHEKGFIEIKPTFSQLEAVNLHEVKHFVVEVRAYPPPRISWLKNNLTLIENLTEITTDVEKIQEIRYRSKLKLIRAKEEDSGHYTIVAQNEDAVKSYTFELLTQVPSSILDLVDDHHGSTGGQTVRCTAEGTPLPDIEWMICKDIKKCNNETSWTILANNVSNIITEIHSRDRSTVEGRVTFAKVEETIAVRCLAKNLLGAENRELKLVAPTLRSELTVAAAVLVLLVIVIISLIVLVVIWKQKPRYEIRWRVIESISPDGHEYIYVDPMQLPYDSRWEFPRDGLVLGRVLGSGAFGKVVEGTAYGLSRSQPVMKVAVKMLKPTARSSEKQALMSELKIMTHLGPHLNIVNLLGACTKSGPIYIITEYCFYGDLVNYLHKNRDSFLSHHPEKPKKELDIFGLNPADESTRSYVILSFENNGDYMDMKQADTTQYVPMLERKEVSKYSDIQRSLYDRPASYKKKSMLDSEVKNLLSDDNSEGLTLLDLLSFTYQVARGMEFLASKNCVHRDLAARNVLLAQGKIVKICDFGLARDIMHDSNYVSKGSTFLPVKWMAPESIFDNLYTTLSDVWSYGILLWEIFSLGGTPYPGMMVDSTFYNKIKSGYRMAKPDHATSEVYEIMVKCWNSEPEKRPSFYHLSEIVENLLPGQYKKSYEKIHLDFLKSDHPAVARMRVDSDNAYIGVTYKNEEDKLKDWEGGLDEQRLSADSGYIIPLPDIDPVPEEEDLGKRNRHSSQTSEESAIETGSSSSTFIKREDETIEDIDMMDDIGIDSSDLVEDSFL”, the “percentage of EdU-negative” value in the data set with MCF7 (setting [3]) was 27.107 ± 0.0077%; with MCF7 (setting [4]), 26.6 ± 2.6%; with hTERT-HMEC (setting [3]) it was 4.84 ± 0.13%; with hTERT-HMEC (setting [4]), 5.7 ± 0.39%.

Turning to “MITEGAQAPRLLLPPLLLLLTLPATGSDPVLCFTQYEESSGKCKGLLGGGVSVEDCCLNTAFAYQKRSGGLCQPCRSPRWSLWSTWAPCSVTCSEGSQLRYRRCVGWNGQCSGKVAPGTLEWQLQACEDQQCCPEMGGWSGWGPWEPCSVTCSKGTRTRRRACNHPAPKCGGHCPGQAQESEACDTQQVCPTHGAWATWGPWTPCSASCHGGPHEPKETRSRKCSAPEPSQKPPGKPCPGLAYEQRRCTGLPPCPVAGGWGPWGPVSPCPVTCGLGQTMEQRTCNHPVPQHGGPFCAGDATRTHICNTAVPCPVDGEWDSWGEWSPCIRRNMKSISCQEIPGQQSRGRTCRGRKFDGHRCAGQQQDIRHCYSIQHCPLKGSWSEWSTWGLCMPPCGPNPTRARQRLCTPLLPKYPPTVSMVEGQGEKNVTFWGRPLPRCEELQGQKLVVEEKRPCLHVPACKDPEEEEL”, the “percentage of EdU-negative” value was found to be 26.24 ± 0.22% with MCF7 (setting [5]), 23.9 ± 2.2% in the data set on MCF7 (setting [6]), 5.11 ± 0.52% in the data set on hTERT-HMEC (setting [5]) and 6.16 ± 1% in the data set on hTERT-HMEC (setting [6]).

Consider “MPQLYIYIRLLGAYLFIISRVQGQNLDSMLHGTGMKSDSDQKKSENGVTLAPEDTLPFLKCYCSGHCPDDAINNTCITNGHCFAIIEEDDQGETTLASGCMKYEGSDFQCKDSPKAQLRRTIECCRTNLCNQYLQPTLPPVVIGPFFDGSIRWLVLLISMAVCIIAMIIFSSCFCYKHYCKSISSRRRYNRDLEQDEAFIPVGESLKDLIDQSQSSGSGSGLPLLVQRTIAKQIQMVRQVGKGRYGEVWMGKWRGEKVAVKVFFTTEEASWFRETEIYQTVLMRHENILGFIAADIKGTGSWTQLYLITDYHENGSLYDFLKCATLDTRALLKLAYSAACGLCHLHTEIYGTQGKPAIAHRDLKSKNILIKKNGSCCIADLGLAVKFNSDTNEVDVPLNTRVGTKRYMAPEVLDESLNKNHFQPYIMADIYSFGLIIWEMARRCITGGIVEEYQLPYYNMVPSDPSYEDMREVVCVKRLRPIVSNRWNSDECLRAVLKLMSECWAHNPASRLTALRIKKTLAKMVESQDVKI”, for which the “percentage of EdU-negative” value in the data set on MCF7 (setting [7]) was determined as 25.5 ± 3.1%; with MCF7 (setting [8]) it was 26.6 ± 0.53%; with hTERT-HMEC (setting [7]), 4.6126 ± 0.0036%; in the data set on hTERT-HMEC (setting [8]), 5.09 ± 0.12%.

Consider “MSSTLPALLCVGLCLSQRISAQQQTLPKPFIWAEPHFMVPKEKQVTICCQGNYGAVEYQLHFEGSLFAVDRPKPPERINKVQFYIPDMNSRMAGQYSCIYRVGELWSEPSNLLDLVVTEMYDTPTLSVHPGPEVISGEKVTFYCRLDTATSMFLLLKEGRSSHVQRGYGKVQAEFPLGPVTTAHRGTYRCFGSYNNHAWSFPSEPVKLLVTGDIENTSLAPEDPTFPADTWGTYLLTTETGLQKDHALWDHTAQNLLRMGLAFLVLVALVWFLVEDWLSRKRTRERASRASTWEGRRRLNTQTL”, for which the “percentage of EdU-negative” value stood at 25.9 ± 2.3% in the data set with MCF7 (setting [9]), 27.7 ± 1.2% in the data set on MCF7 (protein concentration 0.225 µM), 4.59 ± 0.52% in the data set on hTERT-HMEC (setting [9]) and 5.14 ± 0.081% with hTERT-HMEC (protein concentration 0.225 µM).
